# From the supplement of paper PMC11417369
# The list shows a part of the results.
# Test system: PfSIP2 AP2 domain 1 (GST-tagged)
# Assay: gcPBM binding intensity (ln(normalized median fluorescence intensity)); higher = stronger DNA binding
# Procedure, shortened: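 Binding intensity values are the highest Masliner-normalised natural-log median intensity among replicate spots of either probe orientation. The binding step lasted 1 h in 1× PBS with 1% milk, 0.2 mg/ml BSA, 0.5% salmon testes DNA and 0.03% Triton X-100, using GST-tagged P. falciparum DNA-binding domains expressed in E. coli on an Agilent 4 × 180k array of primer-extended double-stranded 36-bp intergenic genomic probes plus negative controls. Alexa488 anti-GST antibody and a 488 nm scan detected bound protein.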
row,Sequence,gcPBM binding intensity (ln)
1,TAAATCACAAAATTATGTACTAAGAAGGAGCAACAT [XGTACX_site6742],7.34
2,TATACCTTAATATACACACATACATATATATATATA [CACACA_site1339],9.12
3,TATATACATTTTTATGTGCACATTTTATTTTTAAAT,8.77
4,TAACAAAGTAAAAGAACATGCAAACACGCACACAGA [TGCATGCA_site374],7.92
5,GGGGAAAAAGCAGGTTGTACAGTGATGTCCATATAA [XGTACX_site7606],7.19
6,AGTGTATTAAATTTTGAACACACAAAATAAAACATA [CACACA_site8483],7
7,TTTAGACTTTTCTATAGTACATATTATATATATATA [XGTACX_site6532],8.42
8,TTTTAATTTAAAAATTAATTTATATATATATATATA [TGCATGCA_negctrl_site447],9.29
9,AACATTATCAAATAAACCATAAATCAATTCAATATG [CACACA_negctrl_site696],6.99
10,AAACGTTTATTTTATTGTACATATGAAAAATGCTTC [XGTACX_site6896],6.95
11,AAAAAAAAAAAAAATTGTACGGATTCTTTTTTTTTT [XGTACX_site2898],7
12,ATATTTTTTTTTTTCACACACATTTAGATTGTATTA [CACACA_site3137],7.22
13,TTGTATAAAAAACTAAAAAATATAAAATAATAAGTG [CACACA_negctrl_site1704],7.23
14,CGTAATAATTAATGTTGTACCCACCAAAAAAATTAA [XGTACX_site8592],7.17
15,ATTACATTTTTGTTTTGTACATATATTTTATAAACA [XGTACX_site494],7.35
16,TTGTTTTGTAATAAAAAAAAAATAATATAATATAAT [XGTACX_negctrl_site300],6.99
17,TATATTTATATATATACACACATAATAAAAAATATA [CACACA_site844],6.97
18,TTTATAGTTTTAAACAAAGTAATACAAATGTATATA [CACACA_negctrl_site1716],6.77
19,GAAATATTGAAACACACACACAAACATATATATATA [CACACA_site1911],9.06
20,TATAAAAAAAATAAAATAAAATAAAATAGAAAAATA [TGCATGCA_negctrl_site109],6.77
21,AAATTTGGTGAAGGATGTACTTTACCTAATACTTGT [XGTACX_site4825],6.85
22,AAAACAAAAAAATTTTGTACGAAACAATACTGTAAG [XGTACX_site7992],7

row,Sequence,gcPBM binding intensity (ln)
1,TATATATATTGTTATTGTACACAAATATAGGAAATA [XGTACX_site7110],7.27
2,ATAAATTAAACAAACACACACGTTCTTTTATTTACT [CACACA_site4556],7.05
3,AAAAAAATATATTCCTAATTTATGATTAAAAGGAAT [CACACA_negctrl_site751],6.77
4,TTTTTTTTTGGGTGTACACATGAATATATATTTTTT [CACACA_site5254],7.83
5,AGAATTATATCATGGTGTACTTATTTGTTTATTTCT [XGTACX_site5795],7.17
6,AAAAAAAAATAAAAAAGTACAGGTAAATATATATAT [XGTACX_site5812],8.29
7,GAATAAATAAAAATATGTACATAAATATATATATAT [XGTACX_site8858],9.22
8,AAAAAAAAAAAATATATATATATATATATAATATTT [GTGCAC_negctrl_site678],7.32
9,AAGACAAATATGTATTGTACGAACGCTTTTTAATTA [XGTACX_site1961],7.17
10,ATACTTTAAAATAATACACACATGGAAAATAAAATT [CACACA_site697],7.17
11,TTTATAAAATATCTTTCACACATTACTATGTATTAT [CACACA_site5148],6.83
12,ATAAAAGTTTAATATTGTACGAACATGCGTTTCTAA [XGTACX_site1487],6.78
13,TTCTTAAAAAATCAAACACACATATATATATACATA [CACACA_site2296],7.11
14,ATAAATAGAATAAAATGTACATGTAATACATATATA [XGTACX_site5475],6.83
15,GTTTAGATAAAAGGGCGTACATCTATTTTTGACTAA [XGTACX_site7170],6.8
16,AAAAAAAAAAAAAAAACACACAATTGAATTATTAAG [CACACA_site2864],7.58
17,TTTTATTATTAAACATGTACCCATATTATTGTTATG [XGTACX_site5563],7.21
18,AAATAAAAAGTAAAGCGTACAAATGATCAAATAATA [XGTACX_site7898],7.13
19,TAATCAACAAAATCTACACACTAAAATGAAATATAA [CACACA_site3749],6.72
20,TATAAATAGATATATACACACTTGTGCAGAATATTA [CACACA_site7112],7.01
21,CCCAGGTGCTCGTAACGTACTTACATCAAATATTAT [XGTACX_site4617],8.97
22,AGAAGTGTAAAAGTTACACACACAAACTTGTCATTT [CACACA_site4613],6.69

row,Sequence,gcPBM binding intensity (ln)
1,AGGCGTGAAATATACGTACACACATTATTTATATTT [CACACA_site2558],7.32
2,TAACATTACTCTTAACTCTTTTGGATACCAACTTAT [XGTACX_negctrl_site82],6.86
3,AAATATTTATAAATTGCACACAAATAATAACATTAT [CACACA_site8737],7
4,ATAATAATATATACATGTACATATATATATATATAT [XGTACX_site3455],9.14
5,TTTTTTTTTTTAATATGTACGTAAAATAAGTTTAAA [XGTACX_site6495],7.54
6,TATTATATTTATTTATGTACACATATACTTAAATAA [XGTACX_site1355],7
7,ACACCTATAAATTAAGTGCATTTTTTTTGATGTTAT,9.15
8,TGTAATACAGAAAAAAGTACTAAAAAGAAAAGGATT [XGTACX_site3176],7.25
9,ACATTCAATCTACTGTGTACATATTAAACTTTGAAA [XGTACX_site2913],7.49
10,AAAAAATATATATCACGTGGTAATATATATATATAT [XGTACX_negctrl_site252],8.8
11,TACATCTGTATATAAACACACAACAAAAATGCTTAC [CACACA_site3814],7.02
12,AAATTAAATCCGCACGCACACACACCGATTAATAAA [CACACA_site9321],7.36
13,AATATATAAATAGATACACACATACATACATACATA [CACACA_site4301],7.1
14,ATATATATACAACAAGCATGCAGTAATTTTTTTTTT [TGCATGCA_site728],7.59
15,CTATAATAACATAACACACACATGTATTTATAGGTG [CACACA_site6298],7.05
16,TCCTTATAAAAATACACACAAACTTTAATTAAAACA [CACACA_site3730],7.04
17,TTATGAAAAAAATACTGTACACAATATGACGAAAGT [XGTACX_site2283],7.45
18,TTTTAAATAAATCATGCATGCACATATAATTATATT [TGCATGCA_site151],8.43
19,TATCTCATTTGGAATTGTACTAACAGATACTTGTTT [XGTACX_site2672],6.71
20,TATACGCATATTTTTACACACATATTTTTTCATATA [CACACA_site2546],7.11
21,TATATATAATATATATGTACATATGTATAATATTTA [XGTACX_site4400],7.32
22,AAATTATTGAAATACGCATGTGTTTTTTTTTTTTTT [TGCATGCA_site391],7.03

row,Sequence,gcPBM binding intensity (ln)
1,AATATTACGTCTGGACGTACAAATCTTTTTCGTGTC [XGTACX_site6644],6.88
2,ACATTTTTTTTTTTTTTTTTTTTCTTACATCATGCA [CACACA_negctrl_site1413],7.1
3,ATATAAAGGTTTATTAGTACACATTAGAATACTTTT [XGTACX_site4492],6.89
4,TTTTACTAGATATATACACACATTATACCTATAGAT [CACACA_site7530],7.4
5,GAAATATTTTGTTGTGCATGCGACATTAAATAAAAA [TGCATGCA_site331],7.31
6,CATATTAGGACAAAGTGTACATATATATATATATAT [XGTACX_site1172],9.53
7,AATATACACATTGTGAAATAACAAAAAAGGCAAAAA [CACACA_negctrl_site1014],7.26
8,CCTATTTATATATACACACACATATATAAATAAATA [CACACA_site2991],7.26
9,ATATATATTCATAATACACACATTCTGTAGCATTAT [CACACA_site2067],7.08
10,ATAGTATCTGGTAGCTGTACGAATGGTAGAGAGTAG [XGTACX_site2548],7.77
11,AATAAAAAGATATTCTCCTTGTTCCTTTTTTTTAAA [CACACA_negctrl_site1147],6.64
12,TATATATATGTATGATGTACATATATGCATATATAT [XGTACX_site3399],7.54
13,TTAATTAAATATTATACACACAAAAAAATAATTTTA [CACACA_site96],6.88
14,AATCTATATTGACACACACACAAAAAAAAAAAAAAA [CACACA_site6739],7.02
15,ATTTTAACCAATTATTGTACTTGGTTATTCTTTTTT [XGTACX_site7453],6.76
16,ATATTTTTTTTCTTCACACACATGAATTATATATAA [CACACA_site3216],7.39
17,CATATTAAAAATACATGTACATATATATTTAATATA [XGTACX_site8580],7.15
18,GTTAAAATAATATTATGTACATATATATAAAAATAT [XGTACX_site8512],7.15
19,TATAAATATGTGTTTACACACAATAATGAATTAAAA [CACACA_site6555],6.76
20,GTTTGTAAATATTTTACACACATATTTATTTATATA [CACACA_site6632],6.73
21,AACCTCAAATACACAAGTACGTATAATAAGGAACAA [XGTACX_site4304],7.17
22,ATGGAAAAATGTATATATAAAATAAATATATTATAT [CACACA_negctrl_site1712],6.72
